From publication PMC9911399, “Two distinct binding modes provide the RNA-binding protein RbFox with extraordinary sequence specificity”
Numbering of substitutions follows the chain as printed; changes in the protein carry UniProt numbers. Some of the results follow.

T1: RBFOX1 RRM RbFoxmut (Fox-RRM*) (Homo sapiens, UniProt Q9NWB1 109-208, R118D;E147R;N151S;E152T)
T1 sequence: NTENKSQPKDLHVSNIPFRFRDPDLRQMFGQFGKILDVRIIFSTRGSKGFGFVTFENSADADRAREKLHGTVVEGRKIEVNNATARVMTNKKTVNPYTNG

B1: AUGCUCC (DNA:RNA)
RNA: GGGAGACCGGAAUUCAGAUUGUCCAUGCUCCUUAAAUCCCGUCGUAGCCACCA
DNA 1: CAATCTGAATTCCGGTCTCCC
DNA 2: TGGTGGCTACGACGGGATT
B2: GUGGUUG (DNA:RNA)
RNA: B1 RNA with A25G, C28G, C30U, C31G
DNA 1: CAATCTGAATTCCGGTCTCCC
DNA 2: TGGTGGCTACGACGGGATT
B3: AGUGAGU (DNA:RNA)
RNA: B1 RNA with U26G, G27U, C28G, U29A, C30G, C31U
DNA 1: CAATCTGAATTCCGGTCTCCC
DNA 2: TGGTGGCTACGACGGGATT
B4: GCAGUCA (DNA:RNA)
RNA: B1 RNA with A25G, U26C, G27A, C28G, C31A
DNA 1: CAATCTGAATTCCGGTCTCCC
DNA 2: TGGTGGCTACGACGGGATT
B5: CUGGCAU (DNA:RNA)
RNA: B1 RNA with A25C, C28G, U29C, C30A, C31U
DNA 1: CAATCTGAATTCCGGTCTCCC
DNA 2: TGGTGGCTACGACGGGATT
B6: GGGAGAC (DNA:RNA)
RNA: B1 RNA with A25G, U26G, C28A, U29G, C30A
DNA 1: CAATCTGAATTCCGGTCTCCC
DNA 2: TGGTGGCTACGACGGGATT
B7: CCUAAGG (DNA:RNA)
RNA: GGGAGACCGGAAUUCAGAUUGUCCCCUAAGGUUAAAUCCCGUCGUAGCCACCA
DNA 1: CAATCTGAATTCCGGTCTCCC
DNA 2: TGGTGGCTACGACGGGATT
B8: CAAAUAU (DNA:RNA)
RNA: B7 RNA with C26A, U27A, A29U, G30A, G31U
DNA 1: CAATCTGAATTCCGGTCTCCC
DNA 2: TGGTGGCTACGACGGGATT
B9: CGCAUUU (DNA:RNA)
RNA: B7 RNA with C26G, U27C, A29U, G30U, G31U
DNA 1: CAATCTGAATTCCGGTCTCCC
DNA 2: TGGTGGCTACGACGGGATT
B10: AUCUUCG (DNA:RNA)
RNA: B1 RNA with G27C, C28U, C31G
DNA 1: CAATCTGAATTCCGGTCTCCC
DNA 2: TGGTGGCTACGACGGGATT
B11: CCGUUUU (DNA:RNA)
RNA: B1 RNA with A25C, U26C, C28U, C30U, C31U
DNA 1: CAATCTGAATTCCGGTCTCCC
DNA 2: TGGTGGCTACGACGGGATT
B12: AGCAGGA (DNA:RNA)
RNA: B7 RNA with C25A, C26G, U27C, A29G, G31A
DNA 1: CAATCTGAATTCCGGTCTCCC
DNA 2: TGGTGGCTACGACGGGATT
B13: ACUGACG (DNA:RNA)
RNA: B7 RNA with C25A, A28G, G30C
DNA 1: CAATCTGAATTCCGGTCTCCC
DNA 2: TGGTGGCTACGACGGGATT
B14: UACACGG (DNA:RNA)
RNA: B7 RNA with C25U, C26A, U27C, A29C
DNA 1: CAATCTGAATTCCGGTCTCCC
DNA 2: TGGTGGCTACGACGGGATT
B15: CUCCGAU (DNA:RNA)
RNA: B1 RNA with A25C, G27C, U29G, C30A, C31U
DNA 1: CAATCTGAATTCCGGTCTCCC
DNA 2: TGGTGGCTACGACGGGATT
B16: UAGGAUA (DNA:RNA)
RNA: B1 RNA with A25U, U26A, C28G, U29A, C30U, C31A
DNA 1: CAATCTGAATTCCGGTCTCCC
DNA 2: TGGTGGCTACGACGGGATT
B17: GCGAGAU (DNA:RNA)
RNA: B7 RNA with C25G, U27G, A29G, G30A, G31U
DNA 1: CAATCTGAATTCCGGTCTCCC
DNA 2: TGGTGGCTACGACGGGATT
B18: ACAGAGG (DNA:RNA)
RNA: B7 RNA with C25A, U27A, A28G
DNA 1: CAATCTGAATTCCGGTCTCCC
DNA 2: TGGTGGCTACGACGGGATT
B19: UAACGGG (DNA:RNA)
RNA: B7 RNA with C25U, C26A, U27A, A28C, A29G
DNA 1: CAATCTGAATTCCGGTCTCCC
DNA 2: TGGTGGCTACGACGGGATT
B20: CCACCCU (DNA:RNA)
RNA: B1 RNA with A25C, U26C, G27A, U29C, C31U
DNA 1: CAATCTGAATTCCGGTCTCCC
DNA 2: TGGTGGCTACGACGGGATT

target: T1, RBFOX1 RRM RbFoxmut (Fox-RRM*); test: EMSA; HiTS-Eq, 1 nM pool, 10 min; buffer printed only for the single-RNA assays: 10 mM Tris pH 7.5, 150 mM NaCl, 3.4 mM EDTA, 0.001% NP-40, 30 C; conditions: tags: His6 N-terminal (pET28a); label: 5' 32P
Outline: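 Purified RbFox RRM, wild type or mutant, was incubated for 10 min in 50 µL with 1 nM of a 5′-radiolabelled RNA pool carrying 7 randomized nucleotides, whose flanks were annealed to DNA oligonucleotides, over a series of increasing protein concentrations. Unbound RNA was resolved on 8% native PAGE, cut out, reverse-transcribed, barcoded by PCR and sequenced on an Illumina HiSeq 2500. Relative association constants were derived from changes in read counts for each RNA species versus the control reaction and normalised to the cognate motif.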

**Q.** For B1, which binding signal is on record?
**A.** 0.0752 KA relative to UGCAUGU

**Q.** For B2, which binding signal is on record?
**A.** 0.737 KA relative to UGCAUGU

**Q.** How did the binding signal turn out when B3 was run?
**A.** 0.179 KA relative to UGCAUGU

**Q.** B4 was tested. Which binding signal did it give?
**A.** 0.062 KA relative to UGCAUGU

**Q.** For B5, which binding signal is on record?
**A.** 0.123 KA relative to UGCAUGU

**Q.** With B6 as the binder, how does the binding signal read?
**A.** 0.0799 KA relative to UGCAUGU

**Q.** With B7 as the binder, how does the binding signal read?
**A.** 0.0711 KA relative to UGCAUGU

**Q.** B8 was tested. Which binding signal did it give?
**A.** 0.0969 KA relative to UGCAUGU

**Q.** B9 was tested. Which binding signal did it give?
**A.** 0.133 KA relative to UGCAUGU

**Q.** For B10, which binding signal is on record?
**A.** 0.104 KA relative to UGCAUGU

**Q.** Which binding signal does the source give for B11 here?
**A.** 0.067 KA relative to UGCAUGU

**Q.** B12 was tested. Which binding signal did it give?
**A.** 0.0735 KA relative to UGCAUGU

**Q.** For B13, which binding signal is on record?
**A.** 0.0933 KA relative to UGCAUGU

**Q.** How did the binding signal turn out when B14 was run?
**A.** 0.0772 KA relative to UGCAUGU

**Q.** Which binding signal does the source give for B15 here?
**A.** 0.0893 KA relative to UGCAUGU

**Q.** With B16 as the binder, how does the binding signal read?
**A.** 0.0533 KA relative to UGCAUGU

**Q.** Which binding signal does the source give for B17 here?
**A.** 0.112 KA relative to UGCAUGU

**Q.** For B18, which binding signal is on record?
**A.** 0.0886 KA relative to UGCAUGU

**Q.** With B19 as the binder, how does the binding signal read?
**A.** 0.0757 KA relative to UGCAUGU

**Q.** B20 was tested. Which binding signal did it give?
**A.** 0.0678 KA relative to UGCAUGU
